# Measured values reported in the supplement of paper PMC3334620.
# Over roughly 33,000 sequences, “E-score (-0.5 to 0.5)” has its median near -0.056; the highest 2% begin near 0.38. Some of the results follow.
# Target: Stb4 (UniProt P50104)
# Assay: PBM E-score (8-mer binding enrichment) (E-score (-0.5 to 0.5)); higher = stronger / more preferred TF binding; most listed sequences are background and not binding sites
# Conditions: protein concentration: 200 nM; construct: GST-DNA-binding domain
# How it was run: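 Masliner-normalised scans of fluorescent anti-GST signal were the basis for scoring. That signal came from GST-tagged yeast transcription factors applied at about 100-200 nM to double-stranded universal all-10-mer Agilent arrays on fresh or once-stripped slides. Each ungapped eight-base word, pooled with its reverse complement, received an E-score from the Universal PBM Analysis Suite.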
row,Sequence,PBM E-score
1,CGACGGGC,0.131
2,CATTCGCG,0.0319
3,ACAATCCA,-0.205
4,AACTTAGC,-0.0883
5,AGATAAAG,-0.0016
6,ATGACTCG,0.145
7,ACACGAGC,-0.152
8,GGATTGCC,0.0664
9,ATTTAAAT,-0.101
10,CTGGGACC,-0.213
11,CCGCGATC,0.142
12,CTGCTCAA,-0.238
13,GGCAAGCA,0.0849
14,ACTGTGAC,-0.0214
15,AACCATAG,-0.0687
16,CATTCCAC,-0.113
17,GGCTTAGA,-0.125
18,AACTCCAG,-0.205
19,ACTTCACT,-0.136
20,AGTTGGCA,-0.178
21,AATAAGGA,-0.136
22,ATTTAAAG,0.121
23,GTGATAGA,-0.147
24,GCAATGAA,-0.0644
25,GCGGAAGC,0.336

row,Sequence,PBM E-score
1,ACGTAATC,-0.107
2,CTTCCGTA,0.379
3,ACTATCGG,0.236
4,CAATGTCA,-0.0158
5,TCACGGCA,0.114
6,CCGAGGCG,0.398
7,CCACATCA,-0.117
8,ACTCTGTG,-0.0844
9,ACCCCTGA,-0.0942
10,ATGGATTC,-0.0389
11,AACCCCGG,0.267
12,AATTGAGT,-0.0376
13,CGGTGCCC,0.167
14,AAAAAAGT,0.0481
15,CTGTAACA,-0.221
16,AAGGTCAT,-0.0172
17,CTTAGTTA,0.0341
18,ACAGTCGG,0.238
19,GGATGACA,0.0349
20,ATCCAAGG,-0.0289
21,AGTCCTAA,-0.274
22,TAACACGA,-0.0541
23,TGGACTAA,-0.242
24,ACACACGT,-0.115
25,AGCAAAAA,-0.0253

row,Sequence,PBM E-score
1,CTACTTAA,-0.292
2,CATTCAAG,-0.00988
3,AGTCCTAG,-0.224
4,CCTCCGTA,0.145
5,GAGTATGC,0.0767
6,GACACGTA,-0.0957
7,GGCTCACA,-0.0527
8,AGCGTCTC,-0.0427
9,AAGGACCG,0.067
10,CAGCGTAG,-0.134
11,CATGTCGG,0.296
12,CAGTCGTC,-0.182
13,CATCGAGC,-0.0405
14,CTCCGGTC,0.255
15,GAATGGCC,0.0908
16,CCTCCTGA,-0.208
17,ATACAGTA,0.0496
18,CCGGGCAG,0.23
19,CAGCCGCG,0.151
20,ACTTGACC,-0.131
21,ACCGTGAC,-0.0354
22,CGTGGTAC,-0.102
23,AAAAATGG,0.042
24,TCCATACA,-0.143
25,TATTTCCA,0.0479

row,Sequence,PBM E-score
1,AAGCGTTG,-0.263
2,AGGAGAGC,-0.227
3,CTATAGCA,-0.107
4,CGGAGCCC,0.162
5,AGAAGACA,-0.259
6,AGCGTCCG,0.0714
7,AGTGTGAA,-0.0503
8,GAATGTTA,0.192
9,AAAGAGAC,-0.0454
10,ATGCATCG,0.18
11,ACGGCGAC,-0.0191
12,AATTTAGG,0.0189
13,AAGCATAA,0.0475
14,GATGCTAA,0.113
15,ACTCCGGC,0.281
16,ATCGTAGC,-0.203
17,GACAACTA,-0.307
18,AGACATAC,-0.107
19,AGAGGCAT,0.0561
20,CCAGCAAC,0.0695
21,CGGATTTA,0.318
22,ATGAGATA,-0.0324
23,CCGGTCCG,0.389
24,CCCGTCTC,0.0964
25,TCCGAGGA,0.453

row,Sequence,PBM E-score
1,GGACTTAC,0.0513
2,CTACCCTC,-0.0598
3,ACCAGCAA,0.0522
4,ACGAGCCT,-0.13
5,AGCTAGAC,-0.132
6,AGCGTATC,-0.153
7,CGTAGGCC,-0.117
8,GCCCTCGA,-0.216
9,GATTGGCA,-0.219
10,TCAATCCA,-0.077
11,ATGGGTTG,-0.00734
12,CTAAGCAG,-0.0836
13,GCACCCAA,0.128
14,GTCATGTA,-0.11
15,GCGATCAA,-0.216
16,GACAATTA,-0.0527
17,ACGAGGCG,-0.0457
18,CCGAGGAG,0.393
19,CGGAGTAG,0.244
20,AGATAGCT,-0.0191
21,TGCTCACA,-0.292
22,AGTGTTTC,-0.113
23,AGTTGAAC,-0.13
24,AAGAATAC,-0.0146
25,ATACTCGG,0.374

row,Sequence,PBM E-score
1,GCAGGCGC,-0.0991
2,GCGCACGC,-0.0384
3,ATTCGAAC,-0.0175
4,GTCGGGGA,0.225
5,GACTCTGA,-0.0541
6,TGGATGAA,-0.185
7,CGCCCCCG,0.181
8,ACTTACGC,0.0071
9,AAGGCCCC,0.00627
10,ACTGTGTC,-0.148
11,ACGAACAA,0.079
12,AATTAGGG,-0.0259
13,CGGGGACG,0.159
14,AGTGTAAC,-0.154
15,GAAGAATA,-0.0763
16,GCCACACA,0.0524
17,CACGCACA,-0.0835
18,AGGGAGCC,-0.0256
19,ACAATCAC,-0.233
20,CAATGGTA,-0.00861
21,CTGGCTAA,-0.189
22,AGATATCC,0.184
23,AAATGATT,0.138
24,ATGTCAGA,-0.0886
25,ACGATCGC,-0.111

row,Sequence,PBM E-score
1,AGCGAACA,-0.0423
2,CTACTGGA,-0.118
3,TCCGTGAA,0.232
4,CACTTGAG,-0.265
5,GTAAAGGA,-0.0182
6,ACCCCCTA,-0.362
7,AGGGACAA,-0.0927
8,ACCAACCG,0.164
9,GCGAGGCC,-0.243
10,GACCAGAA,-0.19
11,GGGCCTTA,-0.238
12,GCCGGGCC,0.169
13,ACGAATAA,0.0549
14,TCCTTGCA,0.0581
15,AGCCCCCA,-0.387
16,GTTTCGAA,-0.145
17,AGGTCTCG,0.00324
18,GCAGAACA,-0.0835
19,GTACGAAC,0.077
20,CACGAACA,-0.0987
21,CGCCGGGA,0.343
22,GCGCTCCC,0.00333
